# Measurements published in the supplement of paper PMC11417369.
# Some of the results follow.
# Test system: PfSIP2 AP2 domain 1 (GST-tagged)
# Experiment: gcPBM binding intensity (ln(normalized median fluorescence intensity)); higher = stronger DNA binding
# Summary of the method: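 GST-fused DNA-binding domains of P. falciparum, expressed in E. coli, were applied at about 25 μg on average for 1 h to an Agilent 4 × 180k array of primer-extended double-stranded 36-bp intergenic genomic probes and negative controls. Binding intensity is the highest Masliner-normalised natural-log median intensity across replicate spots of either probe orientation, measured with Alexa488 anti-GST antibody and a 488 nm scan.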
row,Sequence,gcPBM binding intensity (ln)
1,CACAAAGACACAAACACACACACACCCACATACATA [CACACA_site452],7.2
2,ATTTCCCTATATAGAGCATGCACTATATTCAAATGA [TGCATGCA_site531],8.77
3,AACAAAAACACTTTTACACACATAAGTAAAATATAT [CACACA_site1994],7.11
4,TACTTATTTAAAATAGTGCATGAATAGAAGATATAT [GTGCAC_site9756],8.46
5,ATACAAATATACTTTTGTACGAAGAAATATATATAT [XGTACX_site3912],8.28
6,ATACAATTTATTTTAACACACGAATGAATTGATTAT [CACACA_site4160],6.98
7,GGTTCATATCTTAACACACACATACATATTATAGAT [CACACA_site7392],7.32
8,TAAAGAAACTATTCAACACACGGTCTAATTATTACA [CACACA_site1064],6.74
9,ATAAAAAAAATAAAAAGTACAAAAAAAAAAAATGGA [XGTACX_site136],6.99
10,TATTCTAAAGAAATTACACACATGCAATGAAAAAAA [CACACA_site6895],6.68
11,AAAAATAAACGACAGTGTACTAAATATTTAATTTTC [XGTACX_site3580],6.97
12,CAGGGCAGGGGGAAGGGTACACATAAAAGAAAATAA [XGTACX_site172],8.34
13,TATAAATATATATTTTGTACTTAATATAAATTTATA [XGTACX_site7996],6.96
14,AATAATATTTAATACACACACCAGTTCTGCAAATTT [CACACA_site7712],6.91
15,GAAAAAAGAAATTAAACATGCATCTGCAAATTTAAA [TGCATGCA_site974],6.58
16,AATAGTAAAAGATATACACACACCAAAAAATATAAT [CACACA_site5293],7.15
17,ACATAATAAAAATAAATTCATAAGTAAATAAATAAA [TGCATGCA_negctrl_site186],6.98
18,TGCTACATTTTATGTACACACATATACAGATATATA [CACACA_site4646],7.06
19,TGAATAAATCAAAGCACACATACACCCACATATATA [CACACA_site286],7.01
20,CTAAAAAATAGTAAAAGTACATAAATAATTTTGCTT [XGTACX_site8919],6.78
21,TTACACATGTTTAACTGTACACATAATAGCAATATT [XGTACX_site8545],7.42
22,ACAATTATTTTGTTCTTTAATGGTAGGTTCTATGTC [CACACA_negctrl_site1419],7.04
23,CATAAATTACTTTTTACACACTAAAATAAAATACAA [CACACA_site1135],6.94
24,AATACACGCAGACACACACACACACGCACATATATA [CACACA_site6447],7.36
